According to PubChem BioAssay AID686978 (National Center for Advancing Translational Sciences (NCATS), 2013):
Hit rate of the full screen: of about 420,000 compounds, about 64,000 (15%) were called active. This list was built around the results that the source calls inconclusive (neither active nor inactive); the mix of calls is not that of the screen. The call rests on the fitted dose curve; in most records, active means well fitted inhibition curve with a large enough effect; inconclusive means small, poorly fitted or top-dose-only effect; inactive means flat fitted curve, though single readings scatter. No potency is given beside an inconclusive call; the fits are too rough.

Test: qHTS for Inhibitors of human tyrosyl-DNA phosphodiesterase 1 (TDP1): qHTS in cells in absence of CPT; further: nearly all actives have a fitted effect of over 55% in size
Settings: DT40 Tdp1-/- hTDP1 cells, no CPT, ATP luminescence, 48 h; activity change, negative = growth inhibition: at 46.2 µM (top of the series) unless noted
Outline: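 A cellular qHTS used chicken DT40 cells lacking endogenous Tdp1 but carrying stably transfected human TDP1. Compounds were applied without camptothecin, and cell growth kinetics were judged by ATP-dependent luminescence after ≥48 hr.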
On the % scale 0 is the no-effect control and ±100 the full control effect; potency means the concentration at half of the fitted maximal effect; tags describe the fitted curve by direction and shape.

Row | Structure (SMILES) | Potency | activity change, negative = growth inhibition
1 | COc1ccc2c(c1)c(C(O)CN1CCC(Cc3ccccc3)CC1)c(C)n2C (stereo unspecified) | inconclusive [inhibitor, single point] | 
2 | CCCCNC(=S)N1CCn2cccc2C1c1ccc(F)cc1 (stereo unspecified) | inconclusive [inhibitor, single point] | 
3 | COc1cccc(CNC(=O)N2CCc3c(sc4c3CCCC4)C2c2ccc(F)cc2)c1 (stereo unspecified) | active: 14.6 µM | 
4 | COC(=O)c1cncc(C)c1 |  | inactive: -1.98%
5 | CCOC(=O)N1CCN(S(=O)(=O)c2ccc(C)cc2)C1c1ccc(OC)cc1 (stereo unspecified) | inconclusive [inhibitor, partial curve] | 
6 | C=CCn1c(-c2c(C)nc3cc(C)ccn23)n[nH]c1=S |  | inactive: -4.15%
7 | NC(=O)COC(=O)[C@H](Cc1ccccc1)NS(=O)(=O)c1ccc2c(c1)OCCO2 |  | inconclusive: -24.4% [inhibitor]
8 | CN(C)S(=O)(=O)c1cccc(NC(=O)c2ccc3c(c2)OCCO3)c1 | active: 14.6 µM | 
9 | COc1ccc(S(=O)(=O)N2CCN(c3cnccn3)CC2)cc1OC | inconclusive [inhibitor, full curve] | 
10 | CCOc1ccccc1CNC(=O)CSc1n[nH]c(-c2ccccc2)n1 | inconclusive [inhibitor, single point] | 
11 | COc1ccc(/C=C/CN2CCC(CO)(Cc3ccccc3Cl)CC2)cc1 | active: 14.6 µM | 
12 | COc1ccccc1CN1CC(C(=O)N(C)Cc2[nH]c3ccccc3c2C)CCC1=O (stereo unspecified) | inconclusive [inhibitor, single point] | 
13 | CCn1c(CNc2ccc(Cl)cc2)nnc1SCC(=O)OC1CCCCC1 | inconclusive [inhibitor, partial curve] | 
14 | O=C(NCC1Cc2cccc(-c3cncnc3)c2O1)C1CC1 (stereo unspecified) |  | inactive: -22%
15 | CN1CCN(c2ncnc3ccc(-c4ccccc4C(F)(F)F)cc23)CC1 | inconclusive [inhibitor, single point] | 
16 | CS(=O)(=O)c1ccc(CNC(=O)C2(C(F)(F)F)C/C(=C/CCO)CCCO2)cc1 (stereo unspecified) |  | inactive: 20.8%
17 | O=C(CSc1nc2c(sc3ccccc32)c(=O)n1CCCN1CCCC1)NCc1ccco1 |  | inactive: -10.4%
18 | CCOC(=O)CSc1nnc(NC(=O)CN2CCCCC2)s1 | inconclusive [inhibitor, single point] | 
19 | Cc1cc(C)c2nc(N(CCCN(C)C)C(=O)C3=COCCO3)sc2c1 | active: 20.6 µM | 
20 | CCn1c2c(c(=O)n3ncc(C(=O)N4CCN(c5ccccc5)CC4)c13)CN(Cc1ccc(OC)cc1)CC2 | active: 16.4 µM | 
21 | COc1ccc(OC)c(C2C(C(=O)Nc3ccc(C)cc3C)=C(C)Nc3c(C(=O)Nc4ccc(F)cc4)cnn32)c1 (stereo unspecified) | inconclusive [inhibitor, single point] | 
22 | Cc1cc(=O)oc2cc(OCC(=O)N/N=C/c3cc([N+](=O)[O-])ccc3O)ccc12 | inconclusive [inhibitor, single point] | 
23 | COc1ccc(NC(=O)CN(C)C(=O)CCC(=O)c2ccc(C)cc2)cc1 |  | inactive: -0.472%

Row | Structure (SMILES) | Potency | activity change, negative = growth inhibition
24 | CNc1ncnc2c1ncn2[C@H]1CN(Cc2ccco2)C[C@@H](CO)O1 |  | inactive: -11.7%
25 | O=C1C(Oc2ccc(Cl)cc2)C(c2ccc3c(c2)OCO3)N1CC1CCCO1 (stereo unspecified) | inconclusive [inhibitor, single point] | 
26 | Cc1ccccc1OCCCC(=O)NCc1ccco1 |  | inactive: -6.78%
27 | Cc1nn(Cc2ccc(Cl)cc2)c(C)c1NC(=O)/C=C/c1cnn(C)c1 | inconclusive [inhibitor, partial curve] | 
28 | Cc1cc(Cl)cc(C)c1OCCCCCn1ccnc1 | inconclusive [inhibitor, single point] | 
29 | Clc1ccc2nc(-c3cccc(Br)c3)c(Cc3ccccc3)n2c1 | inconclusive [inhibitor, partial curve] | 
30 | CC(C)c1noc(-c2ccccc2OCC(=O)Nc2ccc([N+](=O)[O-])cc2)n1 |  | inactive: -13.1%
31 | COc1ccc(N(C)S(=O)(=O)c2cccc(C(=O)NC3CCCC3)c2)cc1 | inconclusive [inhibitor, single point] | 
32 | CC1(C)CC(=O)C2=C(C1)OC1=C(C(=O)CC(C)(C)C1)C2c1ccccc1Cl | inconclusive [inhibitor, single point] | 
33 | COc1ccc(-c2nnc(CSc3nc4ccccc4c(=O)n3CC3CCCO3)o2)cc1OC (stereo unspecified) | active: 23.1 µM | 
34 | COCCNC(=S)NNC(=O)c1cccs1 |  | inactive: -10.2%
35 | CC(C(=O)OCC(=O)c1ccc(Br)cc1)N1C(=O)C2C3C=CC(C3)C2C1=O (stereo unspecified) |  | inactive: -13.5%
36 | COc1ccc(Cl)cc1NC(=O)CSc1nc(=O)n(Cc2ccco2)c2c1CCC2 | inconclusive [inhibitor, single point] | 
37 | Cc1onc(-c2c(F)cccc2Cl)c1-c1nnc(-c2ccc(C(F)(F)F)cc2)o1 | inconclusive [inhibitor, single point] | 
38 | O=C(c1ccco1)N1CCN(c2ccc([N+](=O)[O-])cc2Cl)CC1 | inconclusive [inhibitor, single point] | 
39 | CCn1nc(C)c([N+](=O)[O-])c1C(=O)NNC(=O)c1ccc(Cl)cc1 |  | inactive: 0.322%
40 | COc1ccc(C(C)=O)cc1COC(=O)CNC(=O)c1ccc(Cl)cc1 | inconclusive [inhibitor, single point] | 
41 | O=C(N/N=C\c1c(O)ccc2ccccc12)c1ccc(S(=O)(=O)N2CCCCC2)cc1 | active: 3.66 µM | 
42 | Cc1cnc(CN2CCCC(C(=O)c3ccc4c5c(cccc35)CC4)C2)[nH]1 (stereo unspecified) | inconclusive [inhibitor, single point] | 
43 | CC(C)NCC(O)c1ccc(O)c(O)c1 (stereo unspecified) | inactive | 
44 | CCOC(=O)c1ccccc1NC(=O)c1cn(CC(C)C)c(=O)c2cc(OC)c(OC)cc12 | inconclusive [inhibitor, full curve] | 
45 | COc1ccc(N2CCC(CNS(=O)(=O)c3cccc(C(F)(F)F)c3)C2)cc1 (stereo unspecified) | inconclusive [inhibitor, single point] | 
46 | CCOC(=O)N1CCN(C(=O)CCS(=O)(=O)c2ccc3c(c2)CCN3C(=O)CC)CC1 |  | inactive: -4.3%
